In publication PMC10400884:
These are yes or no findings as the source states them, for the method shown. In cells and extracts the contact can be indirect. Some binding calls cover weakened binding; strength is not graded here. Values belong to the substance of their own block, whether it stands above or below them.

Protein sequences, listed by entry. Tags and fused reporters are not part of them.
UniProt O14744: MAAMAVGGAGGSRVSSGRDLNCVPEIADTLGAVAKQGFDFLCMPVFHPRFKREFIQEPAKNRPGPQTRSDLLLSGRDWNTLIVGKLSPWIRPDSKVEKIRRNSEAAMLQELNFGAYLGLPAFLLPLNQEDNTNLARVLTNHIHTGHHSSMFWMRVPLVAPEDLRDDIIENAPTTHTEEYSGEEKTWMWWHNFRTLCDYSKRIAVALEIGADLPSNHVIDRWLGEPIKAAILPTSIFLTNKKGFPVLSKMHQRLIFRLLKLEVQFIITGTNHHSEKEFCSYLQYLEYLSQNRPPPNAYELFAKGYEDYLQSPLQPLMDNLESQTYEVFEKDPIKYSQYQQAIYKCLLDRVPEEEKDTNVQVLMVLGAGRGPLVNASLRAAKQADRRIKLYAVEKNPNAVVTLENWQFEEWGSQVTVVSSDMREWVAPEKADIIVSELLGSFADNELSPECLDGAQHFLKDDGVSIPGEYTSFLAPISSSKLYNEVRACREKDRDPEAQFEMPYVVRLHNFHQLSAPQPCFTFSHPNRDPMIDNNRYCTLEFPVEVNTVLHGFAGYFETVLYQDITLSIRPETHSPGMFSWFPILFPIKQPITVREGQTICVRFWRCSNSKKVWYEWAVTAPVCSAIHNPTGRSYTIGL
UniProt P04150: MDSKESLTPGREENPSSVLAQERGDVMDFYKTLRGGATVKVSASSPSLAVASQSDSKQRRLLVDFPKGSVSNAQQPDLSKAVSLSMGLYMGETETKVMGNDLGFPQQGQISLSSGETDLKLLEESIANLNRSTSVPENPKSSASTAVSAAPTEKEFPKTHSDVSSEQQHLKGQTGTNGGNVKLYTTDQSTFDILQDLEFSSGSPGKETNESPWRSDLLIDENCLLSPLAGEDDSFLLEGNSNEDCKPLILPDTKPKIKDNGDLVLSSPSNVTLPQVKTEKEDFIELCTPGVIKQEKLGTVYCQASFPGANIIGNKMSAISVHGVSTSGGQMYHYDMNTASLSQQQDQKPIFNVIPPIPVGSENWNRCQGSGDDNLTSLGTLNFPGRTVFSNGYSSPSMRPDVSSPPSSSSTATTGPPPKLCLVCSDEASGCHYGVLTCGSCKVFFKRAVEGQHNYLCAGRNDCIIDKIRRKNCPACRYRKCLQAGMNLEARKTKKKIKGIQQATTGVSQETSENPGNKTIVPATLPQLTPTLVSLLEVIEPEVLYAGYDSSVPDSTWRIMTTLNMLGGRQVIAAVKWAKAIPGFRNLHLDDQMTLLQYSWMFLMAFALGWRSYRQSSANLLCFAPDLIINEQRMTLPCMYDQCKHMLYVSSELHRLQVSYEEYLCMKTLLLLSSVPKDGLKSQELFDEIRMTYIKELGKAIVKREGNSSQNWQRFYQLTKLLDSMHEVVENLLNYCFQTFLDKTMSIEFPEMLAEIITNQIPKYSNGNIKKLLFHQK
UniProt Q13185: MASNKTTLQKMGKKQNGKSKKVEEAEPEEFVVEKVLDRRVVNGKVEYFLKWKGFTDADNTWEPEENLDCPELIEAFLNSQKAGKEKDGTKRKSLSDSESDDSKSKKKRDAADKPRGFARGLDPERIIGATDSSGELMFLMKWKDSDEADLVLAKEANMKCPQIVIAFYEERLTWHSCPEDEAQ

How the values were obtained:
[1] = target: V5-PRMT5 overexpressed in Cos-7 cells (psg5-V5-PRMT5) (UniProt O14744); experiment: co-IP; Cos-7 cells transfected with plasmids encoding PRMT5, GR and HP1γ; RIPA lysates immunoprecipitated with HP1γ, PRMT5 or GR antibody, protein A agarose; immunoblot
[2] = target: arginine methyltransferase PRMT5, endogenous (human (endogenous in MDA-MB-231, breast tumours)) (UniProt O14744); experiment: proximity ligation; PLA with pairs of primary antibodies on methanol-fixed TNBC cells (endogenous proteins); 100 nM Dex or ethanol for 2 h; also with siRNAs (GR, HP1γ, PRMT5, G9a, GLP), prednisolone, hydrocortisone, RU486 or GSK595
[3] = target: arginine methyltransferase PRMT5, endogenous (human (endogenous in MDA-MB-231, breast tumours)) (UniProt O14744); experiment: co-IP; endogenous proteins: MDA-MB-231 cells with or without 100 nM Dex for 8 h; lysates immunoprecipitated with PRMT5 antibody; immunoblot
[4] = target: HP1γ, endogenous in Cos-7 cells (African green monkey (endogenous in Cos-7)); experiment: co-IP; semi-endogenous CoIP: Cos-7 cells transfected with plasmids encoding PRMT5 and GR; lysates immunoprecipitated with HP1γ antibody; immunoblot
[5] = target: GR overexpressed in Cos-7 cells (pcdna3.1-GR) (UniProt P04150); experiment: co-IP; Cos-7 cells transfected with plasmids encoding PRMT5, GR and HP1γ; RIPA lysates immunoprecipitated with HP1γ, PRMT5 or GR antibody, protein A agarose; immunoblot
[6] = target: HA-HP1γ overexpressed in Cos-7 cells (pcdna3.1-HA-HP1γ) (UniProt Q13185); experiment: as above
[7] = target: glucocorticoid receptor (GR), endogenous (human (endogenous in MDA-MB-231 and other TNBC cell lines, breast tumours)) (UniProt P04150); experiment: proximity ligation; PLA with pairs of primary antibodies on methanol-fixed TNBC cells (endogenous proteins); 100 nM Dex or ethanol for 2 h; also with siRNAs (GR, HP1γ, PRMT5, G9a, GLP), prednisolone, hydrocortisone, RU486 or GSK595
[8] = target: glucocorticoid receptor (GR), endogenous (human (endogenous in MDA-MB-231 and other TNBC cell lines, breast tumours)) (UniProt P04150); experiment: proximity ligation; PLA for GR/PRMT5 on formalin-fixed human breast tumours sampled at diagnosis
[9] = target: glucocorticoid receptor (GR), endogenous (human (endogenous in MDA-MB-231 and other TNBC cell lines, breast tumours)) (UniProt P04150); experiment: proximity ligation; PLA for GR/PRMT5 on breast cancer patient-derived xenografts (primary tumours and residual tumours after chemotherapy with GCs)
[10] = target: GST-PRMT5 fusion protein (UniProt O14744); experiment: pull-down; GST fusion proteins incubated with in vitro-translated proteins in 200 μl binding buffer (Tris 20 mM pH 7.4, NaCl 0.1 M, EDTA 1 mM, glycerol 10%, Igepal 0.25%, 1 mM DTT, 1% milk) for 2 h at RT; Western blot; 100 nM Dex where indicated; only the target purified
[11] = target: GST-HP1γ fusion protein (UniProt Q13185); experiment: as above

binding [1]: binds
Substance: GR overexpressed in Cos-7 cells (pcdna3.1-GR) (from UniProt P04150 1-777) (receptor)

binding [1]: binds
Substance: HA-HP1γ overexpressed in Cos-7 cells (pcdna3.1-HA-HP1γ) (from UniProt Q13185 1-183)

binding [2]: binds | binding [3]: binds
Substance: HP1γ (CBX3), endogenous (from UniProt Q13185 1-183)

binding [4]: binds | binding [5]: binds | binding [6]: binds
Substance: V5-PRMT5 overexpressed in Cos-7 cells (psg5-V5-PRMT5) (from UniProt O14744 1-637) (enzyme)

binding [7]: binds | binding [8]: binds weakly | binding [9]: binds
Substance: arginine methyltransferase PRMT5, endogenous (from UniProt O14744 1-637) (enzyme)

binding [3]: binds
Substance: glucocorticoid receptor (GR), endogenous (from UniProt P04150 1-777)

binding [10]: binds | binding [11]: no binding
Substance: in vitro-translated GR (pcdna3.1-GR) (from UniProt P04150 1-777) (receptor)

binding [11]: binds
Substance: in vitro-translated PRMT5 (psg5-V5-PRMT5) (from UniProt O14744 1-637) (enzyme)
